Measurements taken from the supplement of paper PMC11876631.
± gives the standard deviation of the averaged measurements. Laboratory Escherichia coli strains with one amino-acid change in an essential protein, pooled on minimal glucose agar with carbenicillin or gentamicin at twice the control MIC (plus kanamycin and chloramphenicol for the plasmids), 48 h. Fold change of barcode share against drug-free plates; higher = less susceptible. Active = above 20 in both replicates (the paper's putatively resistant). '<' = one read or none on drug, '>' = one read or none on a drug-free plate. Shares are relative, so most strains fall below 1 when a few take over. Listed are strains with at least 15 reads on both drug-free plates, and hits; most hits rest on fewer reference reads. Replicate rank correlation about 0.5. Edits are read from barcodes.

Biological target: Escherichia coli (laboratory strain)
Assay: barcode share on antibiotic plates over drug-free plates; higher = less susceptible
Experimental: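 A pool of E. coli strains, each edited to carry one amino-acid change in an essential protein, was grown for 48 h on minimal glucose agar with or without antibiotic; strain barcodes were sequenced; mean of two replicates.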

[1] = antibiotic: carbenicillin, 2× MIC (3.1 µg/mL)
[2] = antibiotic: gentamicin, 2× MIC (MIC 0.45 µg/mL)

Protein	fold change of barcode share [1]	fold change of barcode share [2]
fabI I24Q (protein) MGFLSGKRILVTGVASKLSIAYGQAQAMHREGAELAFTYQNDKLKGRVEEFAAQLGSDIVLQCDVAEDASIDTMFAELGKVWPKFDGFVHSIGFAPGDQLDGDYVNAVTREGFKIAHDISSYSFVAMAKACRSMLNPGSALLTLSYLGAERAIPNYNVMGLAKASLEANVRYMANAMGPEGVRVNAISAGPIRTLAASGIKDFRKMLAHCEAVTPIRRTVTIEDVGNSAAFLCSDLSAGISGEVVHVDGGFSIAAMNELELK	9.09 ± 0.47	
fabI I24D (protein) MGFLSGKRILVTGVASKLSIAYGDAQAMHREGAELAFTYQNDKLKGRVEEFAAQLGSDIVLQCDVAEDASIDTMFAELGKVWPKFDGFVHSIGFAPGDQLDGDYVNAVTREGFKIAHDISSYSFVAMAKACRSMLNPGSALLTLSYLGAERAIPNYNVMGLAKASLEANVRYMANAMGPEGVRVNAISAGPIRTLAASGIKDFRKMLAHCEAVTPIRRTVTIEDVGNSAAFLCSDLSAGISGEVVHVDGGFSIAAMNELELK	0.255 ± 0.16	
argA M173D (protein) MVKERKTELVEGFRHSVPYINTHRGKTFVIMLGGEAIEHENFSSIVNDIGLLHSLGIRLVVVYGARPQIDANLAAHHHEPLYHKNIRVTDAKTLELVKQAAGTLQLDITARLSMSLNNTPLQGAHINVVSGNFIIAQPLGVDDGVDYCHSGRIRRIDEDAIHRQLDSGAIVLDGPVAVSVTGESFNLTSEEIATQLAIKLKAEKMIGFCSSQGVTNDDGDIVSELFPNEAQARVEAQEEKGDYNSGTVRFLRGAVKACRSGVRRCHLISYQEDGALLQELFSRDGIGTQIVMESAEQIRRATINDIGGILELIRPLEQQGILVRRSREQLEMEIDKFTIIQRDNTTIACAALYPFPEEKIGEMACVAVHPDYRSSSRGEVLLERIAAQAKQSGLSKLFVLTTRSIHWFQERGFTPVDIDLLPESKKQLYNYQRKSKVLMADLG	0.83 ± 0.33	
fabI V105P (protein) MGFLSGKRILVTGVASKLSIAYGIAQAMHREGAELAFTYQNDKLKGRVEEFAAQLGSDIVLQCDVAEDASIDTMFAELGKVWPKFDGFVHSIGFAPGDQLDGDYPNAVTREGFKIAHDISSYSFVAMAKACRSMLNPGSALLTLSYLGAERAIPNYNVMGLAKASLEANVRYMANAMGPEGVRVNAISAGPIRTLAASGIKDFRKMLAHCEAVTPIRRTVTIEDVGNSAAFLCSDLSAGISGEVVHVDGGFSIAAMNELELK	0.142 ± 0.063	< 0.0194
fabI V108A (protein) MGFLSGKRILVTGVASKLSIAYGIAQAMHREGAELAFTYQNDKLKGRVEEFAAQLGSDIVLQCDVAEDASIDTMFAELGKVWPKFDGFVHSIGFAPGDQLDGDYVNAATREGFKIAHDISSYSFVAMAKACRSMLNPGSALLTLSYLGAERAIPNYNVMGLAKASLEANVRYMANAMGPEGVRVNAISAGPIRTLAASGIKDFRKMLAHCEAVTPIRRTVTIEDVGNSAAFLCSDLSAGISGEVVHVDGGFSIAAMNELELK	0.48 ± 0.0095	< 0.00986
fabI F113A (protein) MGFLSGKRILVTGVASKLSIAYGIAQAMHREGAELAFTYQNDKLKGRVEEFAAQLGSDIVLQCDVAEDASIDTMFAELGKVWPKFDGFVHSIGFAPGDQLDGDYVNAVTREGAKIAHDISSYSFVAMAKACRSMLNPGSALLTLSYLGAERAIPNYNVMGLAKASLEANVRYMANAMGPEGVRVNAISAGPIRTLAASGIKDFRKMLAHCEAVTPIRRTVTIEDVGNSAAFLCSDLSAGISGEVVHVDGGFSIAAMNELELK	0.399 ± 0.17	< 0.00927
fabI F113W (protein) MGFLSGKRILVTGVASKLSIAYGIAQAMHREGAELAFTYQNDKLKGRVEEFAAQLGSDIVLQCDVAEDASIDTMFAELGKVWPKFDGFVHSIGFAPGDQLDGDYVNAVTREGWKIAHDISSYSFVAMAKACRSMLNPGSALLTLSYLGAERAIPNYNVMGLAKASLEANVRYMANAMGPEGVRVNAISAGPIRTLAASGIKDFRKMLAHCEAVTPIRRTVTIEDVGNSAAFLCSDLSAGISGEVVHVDGGFSIAAMNELELK	0.451 ± 0.032	0.0261 ± 0.016
argA M173P (protein) MVKERKTELVEGFRHSVPYINTHRGKTFVIMLGGEAIEHENFSSIVNDIGLLHSLGIRLVVVYGARPQIDANLAAHHHEPLYHKNIRVTDAKTLELVKQAAGTLQLDITARLSMSLNNTPLQGAHINVVSGNFIIAQPLGVDDGVDYCHSGRIRRIDEDAIHRQLDSGAIVLPGPVAVSVTGESFNLTSEEIATQLAIKLKAEKMIGFCSSQGVTNDDGDIVSELFPNEAQARVEAQEEKGDYNSGTVRFLRGAVKACRSGVRRCHLISYQEDGALLQELFSRDGIGTQIVMESAEQIRRATINDIGGILELIRPLEQQGILVRRSREQLEMEIDKFTIIQRDNTTIACAALYPFPEEKIGEMACVAVHPDYRSSSRGEVLLERIAAQAKQSGLSKLFVLTTRSIHWFQERGFTPVDIDLLPESKKQLYNYQRKSKVLMADLG	0.309 ± 0.028	
fabI V184A (protein) MGFLSGKRILVTGVASKLSIAYGIAQAMHREGAELAFTYQNDKLKGRVEEFAAQLGSDIVLQCDVAEDASIDTMFAELGKVWPKFDGFVHSIGFAPGDQLDGDYVNAVTREGFKIAHDISSYSFVAMAKACRSMLNPGSALLTLSYLGAERAIPNYNVMGLAKASLEANVRYMANAMGPEGVRANAISAGPIRTLAASGIKDFRKMLAHCEAVTPIRRTVTIEDVGNSAAFLCSDLSAGISGEVVHVDGGFSIAAMNELELK	0.284 ± 0.068	
fabI V184D (protein) MGFLSGKRILVTGVASKLSIAYGIAQAMHREGAELAFTYQNDKLKGRVEEFAAQLGSDIVLQCDVAEDASIDTMFAELGKVWPKFDGFVHSIGFAPGDQLDGDYVNAVTREGFKIAHDISSYSFVAMAKACRSMLNPGSALLTLSYLGAERAIPNYNVMGLAKASLEANVRYMANAMGPEGVRDNAISAGPIRTLAASGIKDFRKMLAHCEAVTPIRRTVTIEDVGNSAAFLCSDLSAGISGEVVHVDGGFSIAAMNELELK	0.416 ± 0.18	0.0253 ± 0.0048
argA V399A (protein) MVKERKTELVEGFRHSVPYINTHRGKTFVIMLGGEAIEHENFSSIVNDIGLLHSLGIRLVVVYGARPQIDANLAAHHHEPLYHKNIRVTDAKTLELVKQAAGTLQLDITARLSMSLNNTPLQGAHINVVSGNFIIAQPLGVDDGVDYCHSGRIRRIDEDAIHRQLDSGAIVLMGPVAVSVTGESFNLTSEEIATQLAIKLKAEKMIGFCSSQGVTNDDGDIVSELFPNEAQARVEAQEEKGDYNSGTVRFLRGAVKACRSGVRRCHLISYQEDGALLQELFSRDGIGTQIVMESAEQIRRATINDIGGILELIRPLEQQGILVRRSREQLEMEIDKFTIIQRDNTTIACAALYPFPEEKIGEMACVAVHPDYRSSSRGEVLLERIAAQAKQSGLSKLFALTTRSIHWFQERGFTPVDIDLLPESKKQLYNYQRKSKVLMADLG	0.476 ± 0.16	0.0194 ± 0.0071
fabZ L25A (protein) MTTNTHTLQIEEILELLPHRFPFLAVDRVLDFEEGRFLRAVKNVSVNEPFFQGHFPGKPIFPGVLILEAMAQATGILAFKSVGKLEPGELYYFAGIDEARFKRPVVPGDQMIMEVTFEKTRRGLTRFKGVALVDGKVVCEATMMCARSREA	0.424 ± 0.18	< 0.00956
fabZ L25W (protein) MTTNTHTLQIEEILELLPHRFPFLWVDRVLDFEEGRFLRAVKNVSVNEPFFQGHFPGKPIFPGVLILEAMAQATGILAFKSVGKLEPGELYYFAGIDEARFKRPVVPGDQMIMEVTFEKTRRGLTRFKGVALVDGKVVCEATMMCARSREA	1.09 ± 0.3	0.00915 ± 0.0069
fabZ L25Q (protein) MTTNTHTLQIEEILELLPHRFPFLQVDRVLDFEEGRFLRAVKNVSVNEPFFQGHFPGKPIFPGVLILEAMAQATGILAFKSVGKLEPGELYYFAGIDEARFKRPVVPGDQMIMEVTFEKTRRGLTRFKGVALVDGKVVCEATMMCARSREA	0.158 ± 0.072	< 0.00609
fabZ L24A (protein) MTTNTHTLQIEEILELLPHRFPFALVDRVLDFEEGRFLRAVKNVSVNEPFFQGHFPGKPIFPGVLILEAMAQATGILAFKSVGKLEPGELYYFAGIDEARFKRPVVPGDQMIMEVTFEKTRRGLTRFKGVALVDGKVVCEATMMCARSREA	0.247 ± 0.017	0.00756 ± 0.0021
fabZ L24Q (protein) MTTNTHTLQIEEILELLPHRFPFQLVDRVLDFEEGRFLRAVKNVSVNEPFFQGHFPGKPIFPGVLILEAMAQATGILAFKSVGKLEPGELYYFAGIDEARFKRPVVPGDQMIMEVTFEKTRRGLTRFKGVALVDGKVVCEATMMCARSREA	1.08 ± 1.2	< 0.0107
fabZ F23A (protein) MTTNTHTLQIEEILELLPHRFPALLVDRVLDFEEGRFLRAVKNVSVNEPFFQGHFPGKPIFPGVLILEAMAQATGILAFKSVGKLEPGELYYFAGIDEARFKRPVVPGDQMIMEVTFEKTRRGLTRFKGVALVDGKVVCEATMMCARSREA	0.163 ± 0.02	< 0.011
